SMILES strings stand for the structures. Hit rate of the full screen: of about 310,000 compounds, about 14,000 (4.5%) showed an effect of 50% or more. The effect is printed as a negative number. The list shows a part of the results.
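Further: peak tail current of the secondary pulse compared with the same well before compound.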

Chain of human ether-à-go-go-related gene (hERG) potassium channel (Q12809 whole entry, looked up): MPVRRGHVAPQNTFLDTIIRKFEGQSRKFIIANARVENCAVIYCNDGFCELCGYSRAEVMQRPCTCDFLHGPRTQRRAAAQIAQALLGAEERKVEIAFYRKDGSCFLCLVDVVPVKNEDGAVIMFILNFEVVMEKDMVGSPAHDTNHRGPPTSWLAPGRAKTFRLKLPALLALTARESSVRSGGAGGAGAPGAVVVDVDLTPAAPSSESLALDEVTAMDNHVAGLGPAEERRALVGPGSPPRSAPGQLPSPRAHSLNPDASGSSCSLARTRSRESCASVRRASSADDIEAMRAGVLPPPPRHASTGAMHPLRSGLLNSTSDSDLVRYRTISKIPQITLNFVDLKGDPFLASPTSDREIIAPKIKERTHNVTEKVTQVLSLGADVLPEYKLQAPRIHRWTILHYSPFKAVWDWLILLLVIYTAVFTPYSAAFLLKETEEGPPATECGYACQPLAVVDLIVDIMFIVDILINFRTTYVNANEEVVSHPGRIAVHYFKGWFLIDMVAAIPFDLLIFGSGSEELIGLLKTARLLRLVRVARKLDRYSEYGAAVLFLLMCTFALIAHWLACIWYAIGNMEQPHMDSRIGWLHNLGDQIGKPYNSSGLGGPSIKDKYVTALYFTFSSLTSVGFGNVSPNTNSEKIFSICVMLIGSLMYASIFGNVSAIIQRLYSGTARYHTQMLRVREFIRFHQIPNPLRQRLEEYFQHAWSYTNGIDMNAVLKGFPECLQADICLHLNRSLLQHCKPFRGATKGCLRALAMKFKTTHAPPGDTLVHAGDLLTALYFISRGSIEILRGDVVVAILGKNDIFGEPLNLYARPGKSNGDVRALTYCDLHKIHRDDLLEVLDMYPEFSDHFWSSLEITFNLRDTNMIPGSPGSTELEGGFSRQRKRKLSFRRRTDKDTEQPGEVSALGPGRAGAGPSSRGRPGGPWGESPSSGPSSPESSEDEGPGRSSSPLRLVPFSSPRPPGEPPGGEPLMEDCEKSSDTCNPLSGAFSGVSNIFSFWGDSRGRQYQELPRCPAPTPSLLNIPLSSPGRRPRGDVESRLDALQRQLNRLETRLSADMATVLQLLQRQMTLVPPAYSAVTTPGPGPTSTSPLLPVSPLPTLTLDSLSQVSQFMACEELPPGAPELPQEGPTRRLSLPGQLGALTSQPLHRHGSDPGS

This test addresses human ether-à-go-go-related gene (hERG) potassium channel (human, UniProt Q12809). As to the kind of experiment: primary screen, population patch clamp on CHO cells stably expressing hERG.
For the compound `CC(CNC(=O)c1ccccc1Cl)c1ccccc1` (centres unmarked), the “hERG current change (%, negative = inhibition) at 10uM” value worked out at 12.6%.
With `COc1ccc(N2CCc3c(C)nc4c(OC)cc(OC)cc4c32)cc1` the figure was -75%; with `CCN1CCN(C(=O)CN2C(=O)c3cccc4cccc2c34)CC1`, -1.46%.
The same measure for `Cc1cccc(C2=NN(c3ccc(Br)cc3)[C@@H](C(=O)N3CCOC3=O)[C@@H]2c2ccc(F)cc2)c1`: 27.8%; for `Fc1ccc(NC(=S)NCCN2CCOCC2)c(F)c1F`: 13.8%.
Take `O=C(Nc1ccccc1)c1ccc2c(c1)CCN2S(=O)(=O)c1ccccc1`: the “hERG current change (%, negative = inhibition) at 10uM” value worked out at 7.77%.
The same measure for `O=C(NCCCc1ccccc1)C1CCC(=O)N(CCc2ccc(Cl)cc2)C1` (centres unmarked): -79.8%.
For the compound `COc1ccc(CNC(=O)c2cccc(N(C)C)c2)cc1`, the “hERG current change (%, negative = inhibition) at 10uM” value is 5.01%.
For the compound `COC(=O)c1cccc(C23CC4(C2)[C@H](CN(Cc2cccnc2)[C@@H]4c2ccccc2)C3c2ccc(Cl)nc2)c1` (some centres unmarked), the “hERG current change (%, negative = inhibition) at 10uM” value is recorded as -12.7%.
With `Cc1cc(C)n2c(Nc3ccc4c(c3)OCCO4)c(-c3ccc(C)o3)nc2n1` the figure was -35.5%; with `CCCC1=NN(c2ccc([N+](=O)[O-])cc2)C(=O)/C1=C/N(C)C`, -2.3%.
With `Cc1ccc(CNC(=O)C2CCN(S(=O)(=O)c3cccs3)CC2)o1` the figure was -27.6%; with `Cc1ccc(C(=O)N2CCN(c3ccc(NC(=O)c4cccnc4)cc3)CC2)cc1`, -38.8%.
With `Cc1cc(C)cc(NC(=O)CSc2nnc(-c3ccccc3C)o2)c1` the figure was 3.37%; with `CC1=NN2C(=N)/C(=C\c3cc(C)n(-c4ccc(C)cc4)c3C)C(=O)N=C2S1`, 2.9%.
As for `CCOC(=O)CSc1nc2ccc(N3CCOCC3)cc2c(=O)n1Cc1ccc2c(c1)OCO2`, the “hERG current change (%, negative = inhibition) at 10uM” value was -2.13%.
As for `COc1ccc(C23NCCN2C(=O)c2ccccc23)cc1` (centres unmarked), the “hERG current change (%, negative = inhibition) at 10uM” value amounted to 19.4%.
As for `COc1ccc(C(=O)Nc2ncccc2C)cc1S(=O)(=O)N1CCCc2ccccc21`, the “hERG current change (%, negative = inhibition) at 10uM” value worked out at 9.01%.
Turning to `C#CCSc1nnc(-c2ccccc2)c(=O)[nH]1`, the “hERG current change (%, negative = inhibition) at 10uM” value came out at 8.18%.
The same measure for `CCCS(=O)(=O)c1nc(S(=O)(=O)c2ccc(C)cc2)c(N2CCCC2)s1`: 5.57%; for `COc1cccc(CC2(CO)CCCN(C/C=C/c3ccccc3OC)C2)c1` (centres unmarked): -73.2%; for `COc1cc2nc(C3CCC3)n(N)c(=O)c2cc1OC`: 2.76%.
`O=C(N/N=C/c1ccco1)c1cc(-c2ccc(Cl)cc2)n[nH]1`: the “hERG current change (%, negative = inhibition) at 10uM” value is listed as -3.61%.

Values taken from article PMC4336329 (PLoS ONE, 2015).
